Reference: PubChem BioAssay (NCI)
“And” between values parts separate entries of the source, which are not always exact repeats. Equal values may be shown once.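 Grown in 96-well plates, cells were treated for 48 hours with each compound at five concentrations. Insufficient inhibition: endpoint recorded as highest concentration tested. The concentration for 50% growth inhibition is given as GI50. At the TGI there is no net growth.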

System: NCI-H322M lung
Experiment: NCI-60 cell line screen, 48 h

Row | SMILES | TGI | GI50
1 | O=C1OC(CC(=O)c2ccc(Cl)cc2Cl)C(Cl)=C1Cl (stereo not drawn) | > 100 µM | –
2 | O=C(O)CSCC(=O)O | > 100 µM | –
3 | c1cc(CSP234N5CCN2CCN3CCN4CC5)ccc1CSP123N4CCN1CCN2CCN3CC4 | > 100 µM | –
4 | Cc1ccc2c(c1C)-c1c(ccc(C)c1C)C(=O)C2=O | 4.39 µM | –
5 | CCOC(=O)C1=C(NNC(=O)Cc2ccccc2)CSC1=Nc1ccccc1 | > 100 µM | –
6 | O=C1c2cc3c(cc2CC12Cc1cc4c(cc1C2=O)CCC4)CCC3 | > 100 µM | –
7 | O=c1c2cc(Br)ccc2nc(-c2ccccc2Cl)n1NCC1(O)OCC(O)C(O)C1O (stereo not drawn) | > 100 µM | –
8 | COc1ccc(C/C(C)=C(\c2ccc(OCCN3CCOCC3)cc2)c2ccc(OC(=O)Cc3ccccc3)cc2)cc1 | 20 µM | 1.19 µM
9 | O=C1C=CC(=O)c2c(NCC3CC3)ccc(NCC3CC3)c21 | > 100 µM | –
10 | CN(c1ccc(NC(=O)Nc2ccc(OC(F)(F)F)cc2)cc1)c1ccnc(Nc2cccc(S(N)(=O)=O)c2)n1 | 8.85 µM | 4.27 µM
11 | CS/C(=N\C(=S)Nc1ccccc1)Nc1ccccc1 | > 100 µM | –
12 | O=C1c2ccc3c4c5ccc(c24)C(=O)N1CCCOCCCCOCCCNCc1ccc(cc1)CNCCCOCCCCOCCCN(C3=O)C5=O | 2.43 µM | 1.02 µM
13 | C=CCOC1=C(OCC=C)C(C2COC(C)(C)O2)OC1=O (stereo not drawn) | > 100 µM | –
14 | Cc1cccc(NC(=O)c2cc3cc(N=Nc4ccccc4Cl)ccc3oc2=O)c1 | > 100 µM | –
15 | N#CCC(=O)c1cc(OCc2cc(OCc3ccc(Br)cc3)cc(OCc3ccc(Br)cc3)c2)cc(OCc2cc(OCc3ccc(Br)cc3)cc(OCc3ccc(Br)cc3)c2)c1 | > 100 µM | –
16 | O=c1[nH]/c(=C/c2ccc(OCc3ccccc3)cn2)c(=O)[nH]/c1=C/c1ccc(Cl)cc1 | > 100 µM | –
17 | NC(=O)c1cc([N+](=O)[O-])c(Cl)c([N+](=O)[O-])c1 | 30.7 µM | 16.3 µM
18 | C=C1C(=O)OC2C1CC[C@H](C)C13OC(=O)CC1[C@@]23C (stereo partly drawn) | > 100 µM | –
19 | Cn1c(=O)c(Oc2ccc(F)cc2F)cc2cnc(NC(CO)CO)nc21 | > 25 µM | > 25 µM
20 | CCOC(=O)c1cc(C2CCN(CC(C)CC)C2=S)c(-c2cc(C)no2)[nH]1 (stereo not drawn) | > 100 µM | –
21 | O=C(/C=C/c1ccc(Cl)c(Cl)c1)c1ccc(F)cc1 | > 100 µM | –
22 | COc1ccc2oc(=O)cc(C)c2c1 | > 100 µM | –
23 | Cc1cc(OCc2nn(CN3CCN(C)CC3)c(=S)n2/N=C/c2ccc(-c3ccc(Cl)cc3Cl)o2)ccc1Cl | > 100 µM | –
24 | O=C(O)CCC(NC(=O)c1ccc(Nc2cnc3ccc(C(F)(F)F)cc3n2)cc1)C(=O)O (stereo not drawn) | > 100 µM | –

Row | SMILES | TGI | GI50
25 | C=C(C(=O)O)C1CCC(CC/C=C(\C)CC/C=C(\C)CCC=C(C)C)CO1 (stereo not drawn) | 40.6 µM | –
26 | COC1(O)C(=O)c2ccccc2OC1(OC)c1ccccc1 (stereo not drawn) | > 100 µM | –
27 | CCCCNc1c(CN)cnc2cc(Cl)ccc12 | 33.7 µM | –
28 | CSc1nc(-c2ccc(C)cc2)c(C#N)c(=O)[nH]1 | > 100 µM | –
29 | CCCCn1cnnc1NS(=O)(=O)c1cc(C)c(Cl)cc1SCC(=O)O | > 10 µM | –
30 | O=C1Nc2ccccc2C1Cc1ccc([N+](=O)[O-])cc1 (stereo not drawn) | > 100 µM | –
31 | O=C(O)C(O)Cc1ccccn1 (stereo not drawn) | > 100 µM | –
32 | COc1cc(NCc2ccc3nc(-c4ccccc4)c(N)nc3c2)cc(OC)c1OC | > 100 µM | –
33 | CN1CCN(c2nc(NCCCCNc3ccnc4cc(Cl)ccc34)c3ccccc3n2)CC1 | 8.93 µM | 2.62 µM
34 | Cc1ccc2cc3c(ccc4ccccc43)c3c2c1CC3 | > 100 µM | –
35 | Nc1ncnc2c1ncn2CC(O)C(=O)O (stereo not drawn) | > 100 µM | –
36 | NC(=NC1CCCCCCC1)c1ccc(N2CCN(c3ccc(C(N)=NC4CCCCCCC4)cc3)CC2)cc1 | 26.9 µM | 12.7 µM
37 | COCC1N=C(c2cc(OC)c(OC)c(OC)c2-c2cc3c(cc2C2OCCCO2)OCO3)O[C@H]1c1ccccc1 (stereo partly drawn) | > 100 µM | –
38 | CC(=O)Oc1ccc2c(C)cc(=O)oc2c1 | > 100 µM | –
39 | COc1ccc(C(Cc2cc(OC)c(OC)c(OC)c2)C(=O)O)cc1 (stereo not drawn) | > 100 µM | –
40 | COc1ccc(C(=O)COc2cccc(/C=C3\CSc4ccccc4C3=O)c2)cc1 | 33.7 µM | 13.9 µM
41 | O=C(O)C12C3C4C1C1C2C3C1(Br)C41OCCO1 (stereo not drawn) | > 100 µM | –
42 | O=C1/C(=C/c2ccccc2F)CNC/C1=C\c1ccccc1F | 4.28 µM and 3.75 µM | 1.35 µM and 1.53 µM
43 | CCN(CCCN(CC)C(=O)Nc1ccccc1)C(=O)Nc1ccccc1 | > 100 µM | –
44 | O=C(c1ccco1)n1c2ccc(Br)cc2c2nc3ccccc3nc21 | > 100 µM | –
45 | COc1cc2c3c(n(CCCNCC(OC)OC)c(=O)c2cc1OC)-c1cc2c(cc1C3=O)OCO2 | 35.8 µM | 13.7 µM
46 | C/C([O-])=C1\Cc2ccccc2C1=O.C/C([O-])=C1\Cc2ccccc2C1=O.CC[O-].CC[O-].[Ti+4] | > 100 µM | 32.1 µM
47 | COc1cc(C[C@H]2C(=O)OC[C@@H]2Cc2ccc(OC)c(OC)c2)cc(OC)c1 | > 100 µM | –
48 | N#Cc1c2cccnc2c2nnc3cc(Cl)c(Cl)cc3n12 | 6.48 µM | 2.67 µM

Row | SMILES | TGI | GI50
49 | NC1=C(Br)C(=O)c2ncccc2C1=O | 2.88 µM | –
50 | COc1ccc(C(=O)/C=C/c2c(C(F)(F)F)nc3sccn23)cc1OC | > 100 µM | 3.17 µM
51 | COc1ccc(C2=NN(C(=O)COc3ccc(Cl)cc3)C(O)(c3ccc(Cl)cc3)C2)cc1 (stereo not drawn) | > 100 µM | –
52 | Nc1ccc(C(=O)NN2C(=O)C(Cl)C2c2cc(Br)ccc2O)cc1 (stereo not drawn) | > 100 µM | –
53 | Cc1cc(C)c2c(c1)Nc1ccccc1P2c1ccccc1 (stereo not drawn) | > 100 µM | –
54 | C(=C\c1nccs1)/c1cccc(/C=C/c2nccs2)n1 | > 50 µM | –
55 | C=CC1=C[C@@H]2[C@@H]3O[C@]4(CC[C@H](O4)[C@@H](C)C[C@@H](O)C3=O)C[C@H](O)C3=NCC[C@@]32CC1 | 0.00973 µM | < 0.00333 µM
56 | O=C1/C(=C/c2ccc([N+](=O)[O-])o2)Oc2ccc(Br)cc21 | 31.1 µM | 15.1 µM
57 | c1cc(CCN2CCCCC2)ccn1 | > 100 µM | –
58 | N=c1c2c(-c3ccccc3)c(-c3ccccc3)n(Cc3ccccc3)c2ncn1CCCO | 24.2 µM | 4.3 µM
59 | COC(=O)C1CC=C(SC(=O)c2ccccc2)N1C(=O)c1ccccc1 (stereo not drawn) | > 100 µM | –
60 | CN(C)CCCNc1ncnc2nc[nH]c12 | > 100 µM | –
61 | C[C@]12CC[C@@H]3c4ccc(O)cc4CC[C@H]3[C@@H]1CC[C@@H]2NS(=O)(=O)c1cccc(C(F)(F)F)c1 | 21.8 µM | 10.1 µM
62 | C=C(C)[C@@H]1CC[C@]2(C(=O)NCCNCCNCCN)CC[C@]3(C)[C@H](CC[C@@H]4[C@@]5(C)CC[C@H](O)C(C)(C)[C@@H]5CC[C@]43C)[C@@H]12 | 32.5 µM | 15.1 µM
63 | CC(C)C[C@H](NC(=O)[C@H]1O[C@@H]1C(=O)O)C(=O)NCCc1ccc(O)cc1 | > 100 µM | > 100 µM
64 | CC(=O)Nc1ccccc1C=C1c2ccccc2-c2ccccc21 | > 100 µM | –
65 | COC(=O)[C@@H](O)[C@]1(C(=O)OC)C2O[C@@H](OC)[C@@H]1CCCCCC[C@H]2O | > 100 µM | –
66 | Cc1nc(-n2[nH]c(C)c(CCO)c2=O)[nH]c(=O)c1CCO | > 100 µM | –
67 | O=Cc1cn(Cc2cccc(Cl)c2)c2ccccc12 | 28.8 µM | 9.45 µM
68 | Cc1ccc(S(=O)(=O)NNC(=O)c2sc(-c3nc(C)c(C(=O)NNS(=O)(=O)c4ccc(C)cc4)s3)nc2C)cc1 | > 100 µM | –
69 | COc1cc(Cn2c(=S)ss/c2=N\C(=S)N(C)C)cc(OC)c1OC | > 100 µM | –
70 | C=CCOC1OC(CS(=O)(=O)O)C(O)C(O)C1O (stereo not drawn) | > 100 µM | –
71 | O=C(CCCCCCSc1nc(-c2ccccc2)cc(-c2ccccc2)n1)NO | 10.8 µM | 2.41 µM
72 | C=C1CCC2CC1[C@@H](C(=O)c1c[nH]c3ccccc13)NC2(C)C (stereo partly drawn) | > 37.5 µM | –
